Where two headings read alike, the source gives them in different places. One block for each molecule: values may come before it.
Columns and labels:
[1] = target: T1, ABCC4 (Homo sapiens, UniProt O15439); conditions: 100 nM [^3H]LTB4, 5 mM GSH, 5 min at 37° C., V79-ABCC4 vesicles
T1 sequence (O15439 1-1325): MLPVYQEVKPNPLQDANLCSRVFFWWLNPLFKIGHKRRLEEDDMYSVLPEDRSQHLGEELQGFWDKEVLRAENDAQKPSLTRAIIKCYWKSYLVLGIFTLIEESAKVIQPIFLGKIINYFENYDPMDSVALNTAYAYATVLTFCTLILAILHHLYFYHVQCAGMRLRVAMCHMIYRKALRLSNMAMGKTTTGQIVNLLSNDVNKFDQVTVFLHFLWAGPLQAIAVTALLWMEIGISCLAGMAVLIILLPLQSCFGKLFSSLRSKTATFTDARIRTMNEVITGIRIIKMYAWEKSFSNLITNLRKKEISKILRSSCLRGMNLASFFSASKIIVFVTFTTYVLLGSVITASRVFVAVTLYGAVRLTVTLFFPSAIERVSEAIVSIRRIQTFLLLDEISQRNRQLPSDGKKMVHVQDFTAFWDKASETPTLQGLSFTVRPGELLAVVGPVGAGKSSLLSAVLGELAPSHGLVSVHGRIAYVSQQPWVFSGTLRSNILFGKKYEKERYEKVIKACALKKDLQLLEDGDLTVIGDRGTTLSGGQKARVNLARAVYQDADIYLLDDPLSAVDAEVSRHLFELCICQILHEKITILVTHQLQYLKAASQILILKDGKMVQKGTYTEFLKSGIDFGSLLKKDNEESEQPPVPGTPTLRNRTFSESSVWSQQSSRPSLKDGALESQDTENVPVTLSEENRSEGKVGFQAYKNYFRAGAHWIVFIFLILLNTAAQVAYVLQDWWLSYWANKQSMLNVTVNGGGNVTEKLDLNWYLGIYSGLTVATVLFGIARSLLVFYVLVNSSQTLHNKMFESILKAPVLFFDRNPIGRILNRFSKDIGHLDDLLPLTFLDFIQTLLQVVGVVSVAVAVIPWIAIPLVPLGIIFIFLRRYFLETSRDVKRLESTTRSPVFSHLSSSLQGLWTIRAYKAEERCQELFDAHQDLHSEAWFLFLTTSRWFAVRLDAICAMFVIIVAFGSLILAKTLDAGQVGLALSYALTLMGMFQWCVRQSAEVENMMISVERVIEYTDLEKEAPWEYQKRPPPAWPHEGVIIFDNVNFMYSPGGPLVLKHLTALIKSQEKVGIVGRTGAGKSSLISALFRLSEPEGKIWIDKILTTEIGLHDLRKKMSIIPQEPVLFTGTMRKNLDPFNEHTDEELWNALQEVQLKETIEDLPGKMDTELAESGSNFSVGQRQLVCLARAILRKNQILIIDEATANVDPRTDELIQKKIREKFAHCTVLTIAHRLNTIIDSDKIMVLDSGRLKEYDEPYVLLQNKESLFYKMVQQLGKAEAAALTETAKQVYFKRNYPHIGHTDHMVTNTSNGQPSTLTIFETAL

[2] = target: T1, ABCC4; test: Inhibition of ATP-dependent [3H]LTC4 transport into plasma membrane vesicles from human platelets; assay type: biochemical; design: expressed in transfected cells; host or cells: Chinese hamster lung V79 fibroblasts (V79-ABCC4), inside-out membrane vesicles; conditions: for ATP-dep. [^3H]LTC4 Transport (% of control): 100 nM [^3H]LTC4, 3 min at 37° C., human platelet vesicles

Molecule: cholyltaurine
- ATP-dep. [^3H]LTB4 Transport (% of control) ([1]; compound 10 μM): 39 ± 2 % of control

Molecule: CCCCCC=CCC=CCC=CC=CC(O)CCCC(=O)O (centres unmarked) [5-Hydroxy-6,8,11,14-eicosatetraenoate]
- ATP-dep. [^3H]LTB4 Transport (% of control) ([1]; compound 1 μM): 86 ± 7 % of control

Molecule: OCCN(CCO)c1nc(N2CCCCC2)c2nc(N(CCO)CCO)nc(N3CCCCC3)c2n1 [Dipyridamole, dipyridamole]
- ATP-dep. [^3H]LTB4 Transport (% of control) ([1]; compound 10 μM): 57 ± 3 % of control

Molecule: CCCCCC=CCC(O)C=CC=CCC=CCCCC(=O)O (centres unmarked) [12-Hydroxy-5,8,10,14-eicosatetraenoate, 12-hydroxy-5,8,10,14-eicosatetraenoate]
- ATP-dep. [^3H]LTB4 Transport (% of control) ([1]; compound 1 μM): 106 ± 6 % of control

Molecule: CCCCC[C@H](O)/C=C/[C@H]1[C@H](O)CC(=O)[C@@H]1C/C=C\CCCC(=O)O [Prostaglandin E2, prostaglandin E2]
- ATP-dep. [^3H]LTB4 Transport (% of control) ([1]; compound 10 μM): 46 ± 5 % of control

Molecule: CSc1ccc(/C=C2/C(C)=C(CC(=O)O)c3cc(F)ccc32)cc1 [Sulindac sulfide, sulindac sulfide]
- ATP-dep. [^3H]LTB4 Transport (% of control) ([1]; compound 1 μM): 38 ± 4 % of control
- ATP-dep. [^3H]LTB4 Transport (% of control) ([1]; compound 10 μM): 26 ± 3 % of control
- inhibition of LTC4 transport (in words) ([2]; 10 μM, absence of GSH, platelets): did not inhibit
- ATP-dep. [^3H]LTC4 Transport (% of control) ([2]; compound 1 μM + 5 mM GSH): 63 ± 6 % of control
- ATP-dep. [^3H]LTC4 Transport (% of control) ([2]; compound 1 μM, absence of GSH): 99 ± 5 % of control
- ATP-dep. [^3H]LTC4 Transport (% of control) ([2]; compound 10 μM + 5 mM GSH): 2 ± 0.5 % of control
- ATP-dep. [^3H]LTC4 Transport (% of control) ([2]; compound 10 μM, absence of GSH): 108 ± 2 % of control
- inhibition of LTC4 transport ([2]; presence of 5 mM GSH, platelets): 90%

Molecule: CCCCCCCCCCSC[C@H](NC(=O)CC[C@H](N)C(=O)O)C(=O)NCC(=O)O [S-Decyl GSH, S-decyl glutathione]
- ATP-dep. [^3H]LTB4 Transport (% of control) ([1]; compound 1 μM): 65 ± 6 % of control
- ATP-dep. [^3H]LTB4 Transport (% of control) ([1]; compound 10 μM): 26 ± 3 % of control
- inhibition at 1 µM ([2]; 1 μM, vesicles from human platelets): 58%
- ATP-dep. [^3H]LTC4 Transport (% of control) ([2]; compound 1 μM, absence of GSH): 42 ± 2 % of control
- ATP-dep. [^3H]LTC4 Transport (% of control) ([2]; compound 10 μM, absence of GSH): 11 ± 1 % of control

Molecule: O=C1C(CC[S+]([O-])c2ccccc2)C(=O)N(c2ccccc2)N1c1ccccc1 (centres unmarked) [Sulfinpyrazone, sulfinpyrazone]
- ATP-dep. [^3H]LTB4 Transport (% of control) ([1]; compound 100 μM): 73 ± 7 % of control

Molecule: CCCN(CCC)S(=O)(=O)c1ccc(C(=O)O)cc1 [Probenecid, probenecid]
- ATP-dep. [^3H]LTB4 Transport (% of control) ([1]; compound 100 μM): 73 ± 7 % of control

Continued, values first:

- ATP-dep. [^3H]LTB4 Transport (% of control) ([1]; compound 1 μM): 67 ± 9 % of control
Molecule: CCCCC/C=C\C\C=C/C=C/C=C/[C@@H](SC[C@H](N)C(=O)NCC(=O)O)[C@@H](O)CCCC(=O)O [LTD4, leukotriene D4]

- ATP-dep. [^3H]LTB4 Transport (% of control) ([1]; compound 1 μM): 39 ± 4 % of control
Molecule: CCCCC/C=C\C\C=C/C=C/C=C/[C@@H](SC[C@H](NC(=O)CC[C@H](N)C(=O)O)C(=O)NCC(=O)O)[C@@H](O)CCCC(=O)O [LTC4, leukotriene C4]

- ATP-dep. [^3H]LTB4 Transport (% of control) ([1]; compound 10 μM): 60 ± 4 % of control
- ATP-dep. [^3H]LTB4 Transport (% of control) ([1]; compound 20 μM): 47 ± 2 % of control
- ATP-dep. [^3H]LTC4 Transport (% of control) ([2]; compound 10 μM, absence of GSH): 89 ± 6 % of control
- ATP-dep. [^3H]LTC4 Transport (% of control) ([2]; compound 20 μM, absence of GSH): 68 ± 3 % of control
Molecule: CN(C)C(=O)CCSC(SCCC(=O)O)c1cccc(/C=C/c2ccc3ccc(Cl)cc3n2)c1 (centres unmarked) [MK571]

Reference: patent US20100113370A1, “METHODS AND COMPOUNDS FOR MODULATING INFLAMMATORY PROCESSES” (priority 2007, published 2010)
